{"source": "PubChem BioAssay AID1508642", "about": "(National Center for Advancing Translational Sciences (NCATS), 2021)", "note": "The campaign covered roughly 43,000 compounds. About 200 (0.47%) were called active. Inconclusive results (about 12%) are left out. Calls follow the shape of the dose curve; as a rule, active = well fitted cell-killing curve with a large enough effect; inconclusive = small, poorly fitted or top-dose-only effect, or effect the other way; inactive = flat fitted curve, though single readings scatter. The list shows a part of the results. % is scaled to controls: 0 for no effect and ±100 for the full control effect."}
{"assay": "Cell viability qHTS assay in S16 Pmp22-F2sN cells; also: nearly all actives have a fitted effect of over 65% in size", "details": "S16 Pmp22-F2sN Schwann cells viability, CellTiter-Glo, 24 h; series mostly up to 57.5 µM; activity change, negative = cytotoxicity: at the top concentration", "in_short": "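Viability was measured by CellTiter-Glo luminescence (15 min, room temperature). This followed 24 h at 37 °C of compound exposure (23 nL pin transfer) in S16 Pmp22-F2sN Schwann cells, 500-1,000 per well.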"}
{"molecule": "COc1ccc(-c2cc(OC(=O)c3ccccc3C)c3c(C)oc(C)c3c(=O)c2)cc1", "activity change, negative = cytotoxicity": "inactive: 3.31%"}
{"molecule": "CCOC(=O)c1c(C)oc2nc(C)nc(Nc3cc(C)cc(C)c3)c12", "activity change, negative = cytotoxicity": "inactive: 1.77%"}
{"molecule": "CC(=O)N1CCCc2cc(S(=O)(=O)N(CCN(C)C)Cc3ccccc3)ccc21", "activity change, negative = cytotoxicity": "inactive: 6.89%"}
{"molecule": "CCc1ccc2oc(C(=O)NCC(c3ccc(Cl)cc3)N3CCOCC3)c(C)c2c1", "note": "(configuration not stated)", "activity change, negative = cytotoxicity": "inactive: -13.1%"}
{"molecule": "Cc1csc2nc(COC(=O)c3ccc(F)cc3)cc(=O)n12", "activity change, negative = cytotoxicity": "inactive: -13.9%"}
{"molecule": "O=C(CSc1nc2ccccc2n1Cc1ccc(F)cc1)N1CCN(c2ccc(F)cc2)CC1", "activity change, negative = cytotoxicity": "inactive: 4.76%"}
{"molecule": "Cc1ccc(C)c(NC(=O)CSc2nnc(CNC(=O)c3ccccc3)n2-c2ccccc2)c1", "activity change, negative = cytotoxicity": "inactive: 17.5%"}
{"molecule": "CCOc1ccc(NC(=O)c2ccc(CN3C(=O)C(C)=C(c4ccc(C)cc4)S3(=O)=O)cc2)cc1", "activity change, negative = cytotoxicity": "inactive: 0.536%"}
{"molecule": "CC(=O)Nc1ccc(NC(=O)CCc2c(C)nc3c(c(C)nn3-c3ccc(C)cc3)c2C)cc1", "activity change, negative = cytotoxicity": "inactive: 3.21%"}
{"molecule": "CC(=O)Nc1ccccc1-c1nc2ccccc2n(C(C)C(=O)Nc2cc(Cl)ccc2C)c1=O", "note": "(configuration not stated)", "activity change, negative = cytotoxicity": "inactive: -5.36%"}
{"molecule": "CCN(CC)S(=O)(=O)c1nnc(NC(=O)COc2ccc(C)cc2)s1", "activity change, negative = cytotoxicity": "inactive: -1.36%"}
{"molecule": "O=C(Nc1ccccc1Cl)c1ccc(F)c(S(=O)(=O)NCc2ccc(Cl)c(Cl)c2)c1", "activity change, negative = cytotoxicity": "inactive: -2.35%"}
{"molecule": "CCOC(=O)c1sc(N2C(=O)c3oc4cc(C)c(C)cc4c(=O)c3C2c2ccc(C)cc2)nc1C", "note": "(configuration not stated)", "activity change, negative = cytotoxicity": "inactive: -7.52%"}
{"molecule": "COc1ccc(CN2CCCN(CC(=O)Nc3cc(C)ccc3C)S2(=O)=O)cc1", "activity change, negative = cytotoxicity": "inactive: -12.5%"}
{"molecule": "CCC(=O)Nc1ccccc1-c1nc2ccccc2n(Cc2cccc(Br)c2)c1=O", "activity change, negative = cytotoxicity": "inactive: -2.86%"}
{"molecule": "Cn1c(=O)c2sccc2n2c(CCCC(=O)Nc3ccc(Cl)cc3)nnc12", "activity change, negative = cytotoxicity": "inactive: 3.56%"}
{"molecule": "COc1cc(OC)c(NC(=O)c2sc3nc4n(c(=O)c3c2C)CCCC4)cc1Cl", "activity change, negative = cytotoxicity": "inactive: -2.32%"}
{"molecule": "COc1ccc(S(=O)(=O)NCCc2sc(C)nc2C)cc1", "activity change, negative = cytotoxicity": "inactive: 2.55%"}
{"molecule": "CCCOc1cccc(C(=O)Nc2cc(-c3nc4ccccc4[nH]3)ccc2C)c1", "activity change, negative = cytotoxicity": "inactive: -23.5%"}
{"molecule": "CCn1c(CNC(=O)C23CC4CC(CC(C4)C2)C3)nnc1SCC(=O)Nc1ccc(C)cc1", "activity change, negative = cytotoxicity": "inactive: 0.794%"}
{"molecule": "Cc1nc2c3cccnc3nn2c(C)c1CCC(=O)NCc1ccccc1Cl", "activity change, negative = cytotoxicity": "inactive: 18.1%"}
{"molecule": "Cc1ccc(S(=O)Cc2ccc(C(=O)NCc3ccc(OC(C)C)cc3)o2)cc1", "note": "(configuration not stated)", "activity change, negative = cytotoxicity": "inactive: -9.74%"}
{"molecule": "CCOc1ccccc1NC(=O)CSc1nc2ccccc2nc1Cc1ccc(C)cc1", "activity change, negative = cytotoxicity": "inactive: 24.3%"}
{"molecule": "Cc1ccc2c(Sc3ccccc3)c(C(=O)NCc3ccccc3F)[nH]c2c1", "activity change, negative = cytotoxicity": "inactive: 5.01%"}
{"molecule": "CC(=O)c1ccc(NC(=O)c2sc(-n3nc(C)c(CCC(C)C)c3C)nc2C)cc1", "activity change, negative = cytotoxicity": "inactive: -3.66%"}
{"molecule": "CCOc1cc(Cn2c(-c3ccc(O)c(OCC)c3)nc3ccccc32)ccc1O", "activity change, negative = cytotoxicity": "inactive: -10.2%"}
{"molecule": "O=C(CC1C(=O)OCCN1Cc1ccccc1)Nc1cccc(Cl)c1", "note": "(configuration not stated)", "activity change, negative = cytotoxicity": "inactive: -0.578%"}
{"molecule": "Cc1ccc(CCNC(=O)CN2C(=O)COc3ccc(S(=O)(=O)N4CCCC4)cc32)cc1", "activity change, negative = cytotoxicity": "inactive: 6.36%"}
{"molecule": "CCCCC(=O)N1CC(=O)Nc2ccc(F)cc2C1c1ccc(F)cc1", "note": "(configuration not stated)", "activity change, negative = cytotoxicity": "inactive: -0.011%"}
{"molecule": "CCc1ccc(OCC(=O)Nc2ccc(S(=O)(=O)Nc3onc(C)c3C)cc2)cc1", "activity change, negative = cytotoxicity": "inactive: 2.79%"}
{"molecule": "COc1ccc(OC2CCN(S(=O)(=O)c3cccc(F)c3)CC2)cc1", "activity change, negative = cytotoxicity": "inactive: -2.71%"}
{"molecule": "Cc1ccc2oc(=O)n(CCNC(=O)Nc3ccccc3C)c2c1", "activity change, negative = cytotoxicity": "inactive: -18.5%"}
{"molecule": "Cc1ccc(CNC(=O)Cc2c(C(=O)O)c(C)cn2C)cc1", "activity change, negative = cytotoxicity": "inactive: 4%"}
{"molecule": "CCCCn1c(=O)c2oc3ccccc3c2n(CC(=O)Nc2cc(C)ccc2C)c1=O", "activity change, negative = cytotoxicity": "inactive: -0.216%"}
{"molecule": "COc1cc(OC)c(NC(=O)Cc2c(C(=O)O)c(C)cn2C)cc1Cl", "activity change, negative = cytotoxicity": "inactive: -2.34%"}
{"molecule": "COc1ccc(NC(=O)C2=C(C)Nc3ncnn3C2c2sccc2C)cc1", "note": "(configuration not stated)", "activity change, negative = cytotoxicity": "inactive: 4.32%"}
{"molecule": "CC(=O)N1CCCC1c1nc2ccccc2n1Cc1c(F)cccc1Cl", "note": "(configuration not stated)", "activity change, negative = cytotoxicity": "inactive: 24.6%"}
{"molecule": "COc1ccc(C2C(C(=O)Nc3ccccc3)=C(C)Nc3nc(-c4ccccc4)nn32)c(OC)c1", "note": "(configuration not stated)", "activity change, negative = cytotoxicity": "inactive: 0.222%"}
{"molecule": "Cc1ccccc1NC(=O)Nc1csc2c1CCCC2", "activity change, negative = cytotoxicity": "inactive: -18.8%"}
{"molecule": "CCOc1ccc(CN2C(=O)c3ccccc3Sc3ccc(C(=O)NCc4ccc5c(c4)OCO5)cc32)cc1", "activity change, negative = cytotoxicity": "inactive: 7.69%"}
{"molecule": "COc1ccc(C)cc1NC(=O)C(NS(=O)(=O)c1cccs1)c1ccccc1", "note": "(configuration not stated)", "activity change, negative = cytotoxicity": "inactive: 0.946%"}
{"molecule": "Cc1cccc(C(=O)N2CCNC(=O)C2CC(=O)Nc2ccc(F)cc2)c1", "note": "(configuration not stated)", "activity change, negative = cytotoxicity": "inactive: 1.04%"}
{"molecule": "CCOc1ccc(CCNC(=O)C(CC)n2nc(C)c3c(C)n(-c4ccccc4)nc3c2=O)cc1", "note": "(configuration not stated)", "activity change, negative = cytotoxicity": "inactive: -25.3%"}
{"molecule": "Cc1cccc(N2CCN(C(=O)c3sc4nc5n(c(=O)c4c3C)CCC5)CC2C)c1", "note": "(configuration not stated)", "activity change, negative = cytotoxicity": "inactive: 4.02%"}
{"molecule": "COc1ccc(-c2c(C#N)c(SCC(=O)Nc3ccc(C)c(C)c3)nc(C)c2C(=O)Nc2ccc(Cl)cc2)cc1", "activity change, negative = cytotoxicity": "inactive: -1.36%"}
{"molecule": "O=C(NC1CCCC1)c1ccc(CSc2nc3cccnc3n2Cc2cccc(F)c2)cc1", "activity change, negative = cytotoxicity": "inactive: -10.9%"}
{"molecule": "O=c1[nH]c(SCc2ccccc2)nc2c1CCCC2", "activity change, negative = cytotoxicity": "inactive: -11.6%"}
{"molecule": "O=C(CSc1nnc(-c2ccccc2Br)n1-c1ccccc1)c1ccc(F)cc1", "activity change, negative = cytotoxicity": "inactive: -1.1%"}
{"molecule": "Cc1nc2ccn(Cc3cccnc3)c(=O)c2cc1C(=O)NCc1ccccc1", "activity change, negative = cytotoxicity": "inactive: 4.16%"}
{"molecule": "Cc1oc(-c2ccccc2Cl)nc1CS(=O)CC(=O)N1CCN(c2cccc(C(F)(F)F)c2)CC1", "note": "(configuration not stated)", "activity change, negative = cytotoxicity": "inactive: -28.4%"}
{"molecule": "Cc1nc2sccn2c(=O)c1S(=O)(=O)Nc1ccc(N2CCN(C)CC2)cc1", "activity change, negative = cytotoxicity": "inactive: 14.3%"}
{"molecule": "CCC(=O)N1CCc2cc(CNS(=O)(=O)c3ccccc3F)ccc21", "activity change, negative = cytotoxicity": "inactive: 5.13%"}
{"molecule": "Cc1cc(C)cc(NS(=O)(=O)c2ccc3[nH]cc(C(=O)N4CCCCC4)c(=O)c3c2)c1", "activity change, negative = cytotoxicity": "inactive: -7.49%"}
{"molecule": "Cc1ccc(-n2c(=O)c3oc4ccccc4c3n(Cc3ccccc3)c2=O)cc1C", "activity change, negative = cytotoxicity": "inactive: 5.32%"}
{"molecule": "Cc1ccc(-c2noc(-c3nnn(CC(=O)Nc4ccc(C)cc4Cl)c3N)n2)cc1", "activity change, negative = cytotoxicity": "inactive: 1.38%"}
{"molecule": "Cc1cccc(OCC(=O)Nc2nnc(S(=O)(=O)N3CCCCCC3)s2)c1", "activity change, negative = cytotoxicity": "inactive: 1.27%"}
{"molecule": "Cc1ccc(-n2nc(C(=O)NC(C)C)c(=O)n(C)c2=O)cc1", "activity change, negative = cytotoxicity": "inactive: -0.649%"}
{"molecule": "CCOc1ccccc1CNC(=O)c1ccc2c(c1)N(CC)CCS2", "activity change, negative = cytotoxicity": "inactive: -3.7%"}
{"molecule": "COc1cccc(CNC(=O)C(Cc2ccccc2)NS(=O)(=O)c2ccc3c(c2)CCN3C(C)=O)c1", "note": "(configuration not stated)", "activity change, negative = cytotoxicity": "inactive: -18.6%"}
{"molecule": "CCOc1cc2c(cc1OCC)C(CC(=O)OC)N(C(=O)Nc1cc(C)cc(C)c1)CC2", "note": "(configuration not stated)", "activity change, negative = cytotoxicity": "inactive: 6.72%"}
{"molecule": "Cc1ccc(NC(=O)CCc2nc(-c3ccccc3F)no2)c(C)c1", "activity change, negative = cytotoxicity": "inactive: 0.417%"}
{"molecule": "O=C1CCCc2cc(S(=O)(=O)N3CCCC(C(=O)NCc4ccccc4Cl)C3)ccc2N1", "note": "(configuration not stated)", "activity change, negative = cytotoxicity": "inactive: -2.82%"}
